Results taken from article PMC5121418.
Residue numbers refer to the chain shown, from its start. No constants are given. Whether binding was seen depends on the method and setting. In cells and extracts the contact can be indirect. Some binding calls cover weakened binding; strength is not graded here. For some of these results: Tags and fused reporters may be left off the sequences shown.

Key:
[1] = molecular target: Myc-GCN5 (mouse) (UniProt Q9JHD2); assay: proximity ligation; in situ PLA (Duolink) in nuclei of primary mouse hepatocytes exposed to pCPT-cAMP for 1 h
[2] = molecular target: Myc-GCN5 (mouse) (UniProt Q9JHD2); assay: proximity ligation; in situ PLA (Duolink) in nuclei of primary mouse hepatocytes, exposed or not to pCPT-cAMP for 1 h; signal means proximity <40 nm
[3] = molecular target: FLAG-GCN5 (wild type) (mouse) (UniProt Q9JHD2); assay: co-IP; AML12 cell lysates (20 mM Tris-HCl pH 7.5, 150 mM NaCl, 0.5% Nonidet P-40, 2 mM EDTA, 10% glycerol), IP with protein G-Sepharose or Dynabeads Protein G, immunoblot; some cells with CITED2 shRNA or H89
[4] = molecular target: T1, FLAG-GCN5(S275D) (mouse) (UniProt Q9JHD2); assay: as above
T1 sequence: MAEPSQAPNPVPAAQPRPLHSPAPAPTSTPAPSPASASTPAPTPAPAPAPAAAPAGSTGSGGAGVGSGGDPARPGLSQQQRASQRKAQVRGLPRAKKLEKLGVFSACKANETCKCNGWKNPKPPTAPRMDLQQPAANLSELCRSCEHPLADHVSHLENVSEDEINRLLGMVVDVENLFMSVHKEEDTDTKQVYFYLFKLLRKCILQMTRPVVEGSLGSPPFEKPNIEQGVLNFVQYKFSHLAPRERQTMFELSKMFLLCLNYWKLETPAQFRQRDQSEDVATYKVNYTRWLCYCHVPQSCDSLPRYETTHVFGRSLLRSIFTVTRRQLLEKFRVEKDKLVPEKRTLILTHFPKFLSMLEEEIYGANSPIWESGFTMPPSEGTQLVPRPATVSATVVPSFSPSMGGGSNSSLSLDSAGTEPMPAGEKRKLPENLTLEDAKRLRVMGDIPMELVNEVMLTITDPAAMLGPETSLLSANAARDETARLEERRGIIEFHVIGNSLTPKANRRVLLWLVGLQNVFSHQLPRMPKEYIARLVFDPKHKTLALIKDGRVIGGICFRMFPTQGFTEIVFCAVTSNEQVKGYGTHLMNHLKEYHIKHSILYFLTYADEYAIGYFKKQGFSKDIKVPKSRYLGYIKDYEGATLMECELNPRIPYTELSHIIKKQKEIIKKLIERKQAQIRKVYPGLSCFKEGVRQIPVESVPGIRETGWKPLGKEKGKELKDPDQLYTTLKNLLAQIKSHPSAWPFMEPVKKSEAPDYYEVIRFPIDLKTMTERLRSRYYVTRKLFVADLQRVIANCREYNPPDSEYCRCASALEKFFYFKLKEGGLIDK

[5] = molecular target: FLAG-GCN5 (wild type) (mouse) (UniProt Q9JHD2); assay: co-IP; as a4, AML12 cells exposed to pCPT-cAMP before lysis (30 min in Supplementary Fig. 4f,g; time not given for Figure 7g)
[6] = molecular target: T2, FLAG-GCN5(S275A) (mouse) (UniProt Q9JHD2); assay: as above
T2 sequence: T1 sequence with D275A

[7] = molecular target: T2, FLAG-GCN5(S275A) (mouse); assay: co-IP; AML12 cell lysates (20 mM Tris-HCl pH 7.5, 150 mM NaCl, 0.5% Nonidet P-40, 2 mM EDTA, 10% glycerol), IP with protein G-Sepharose or Dynabeads Protein G, immunoblot; some cells with CITED2 shRNA or H89
[8] = molecular target: FLAG-GCN5 (mouse liver) (mouse) (UniProt Q9JHD2); assay: co-IP; liver of lean mice expressing FLAG-GCN5 and HA-CITED2, time course of fasting after refeeding; CITED2 co-immunoprecipitated with GCN5
[9] = molecular target: GCN5 immunoprecipitated from AML12 cells overexpressing GCN5 alone (mouse) (UniProt Q9JHD2); assay: pull-down; recombinant human CITED2 with GCN5 immunoprecipitated from AML12 cells overexpressing GCN5 alone; only the binder purified
[10] = molecular target: GCN5 in AML12 cells (construct not given) (mouse) (UniProt Q9JHD2); assay: condition: only cells exposed to pCPT-cAMP for 30 min; co-IP; as a4, AML12 cells exposed to pCPT-cAMP before lysis (30 min in Supplementary Fig. 4f,g; time not given for Figure 7g)
[11] = molecular target: GCN5 in AML12 cells (construct not given) (mouse) (UniProt Q9JHD2); assay: co-IP; AML12 cell lysates (20 mM Tris-HCl pH 7.5, 150 mM NaCl, 0.5% Nonidet P-40, 2 mM EDTA, 10% glycerol), IP with protein G-Sepharose or Dynabeads Protein G, immunoblot; some cells with CITED2 shRNA or H89

B1: FLAG-PGC-1α (protein, UniProt O70343 1-797)
chain: MAWDMCSQDSVWSDIECAALVGEDQPLCPDLPELDLSELDVNDLDTDSFLGGLKWCSDQSEIISNQYNNEPANIFEKIDEENEANLLAVLTETLDSLPVDEDGLPSFDALTDGAVTTDNEASPSSMPDGTPPPQEAEEPSLLKKLLLAPANTQLSYNECSGLSTQNHAANHTHRIRTNPAIVKTENSWSNKAKSICQQQKPQRRPCSELLKYLTTNDDPPHTKPTENRNSSRDKCASKKKSHTQPQSQHAQAKPTTLSLPLTPESPNDPKGSPFENKTIERTLSVELSGTAGLTPPTTPPHKANQDNPFKASPKLKPSCKTVVPPPTKRARYSECSGTQGSHSTKKGPEQSELYAQLSKSSGLSRGHEERKTKRPSLRLFGDHDYCQSLNSKTDILINISQELQDSRQLDFKDASCDWQGHICSSTDSGQCYLRETLEASKQVSPCSTRKQLQDQEIRAELNKHFGHPCQAVFDDKSDKTSELRDGDFSNEQFSKLPVFINSGLAMDGLFDDSEDESDKLSYPWDGTQPYSLFDVSPSCSSFNSPCRDSVSPPKSLFSQRPQRMRSRSRSFSRHRSCSRSPYSRSRSRSPGSRSSSRSCYYYESSHYRHRTHRNSPLYVRSRSRSPYSRRPRYDSYEAYEHERLKRDEYRKEHEKRESERAKQRERQKQKAIEERRVIYVGKIRPDTTRTELRDRFEVFGEIEECTVNLRDDGDSYGFITYRYTCDAFAALENGYTLRRSNETDFELYFCGRKQFFKSNYADLDTNSDDFDPASTKSKYDSLDFDSLLKEAQRSLRR
[1]
  binding: no binding (condition: cells exposed to pCPT-cAMP for 1 h)
[2]
  binding: binds

B2: V5-tagged PGC-1α (protein, UniProt O70343 1-797)
chain: B1 chain
[3]
  binding: binds
[4]
  binding: binds

B3: HA-CITED2 (protein, UniProt O35740 1-269)
chain: MADHMMAMNHGRFPDGTNGLHHHPAHRMGMGQFPSPHHHQQQQPQHAFNALMGEHIHYGAGNMNATSGIRHAMGPGTVNGGHPPSALAPAARFNNSQFMGPPVASQGGSLPASMQLQKLNNQYFNHHPYPHNHYMPDLHPTAGHQMNGTNQHFRDCNPKHSGGSSTPGGAGGSGTPGGSGGTSGGAGGSSAGGSGGGSTMPASVAHVPAAMLPPNVIDTDFIDEEVLMSLVIEMGLDRIKELPELWLGQNEFDFMTDFVCKQQPSRVSC
[5]
  binding: binds
[6]
  binding: binds
[3]
  binding: binds
[7]
  binding: binds
[4]
  binding: binds

B4: HA-CITED2 (mouse liver) (protein, UniProt O35740 1-269)
chain: B3 chain
[8]
  binding: binds

B5: recombinant human CITED2 (protein, UniProt Q99967 1-270)
chain: MADHMMAMNHGRFPDGTNGLHHHPAHRMGMGQFPSPHHHQQQQPQHAFNALMGEHIHYGAGNMNATSGIRHAMGPGTVNGGHPPSALAPAARFNNSQFMGPPVASQGGSLPASMQLQKLNNQYFNHHPYPHNHYMPDLHPAAGHQMNGTNQHFRDCNPKHSGGSSTPGGSGGSSTPGGSGSSSGGGAGSSNSGGGSGSGNMPASVAHVPAAMLPPNVIDTDFIDEEVLMSLVIEMGLDRIKELPELWLGQNEFDFMTDFVCKQQPSRVSC
[9]
  binding: binds

B6: CITED2 in AML12 cells (construct not told in the text) (protein, UniProt O35740 1-269)
chain: B3 chain
[10]
  binding: no binding
[11]
  binding: binds
